According to PubChem BioAssay AID651820 (National Center for Advancing Translational Sciences (NCATS), 2012):
Among all 340,000 compounds or so, about 12,000 (3.5%) were called active. Inconclusive results, whose numbers are uncertain, are shown with a selection of clear calls. Calls follow the shape of the dose curve; as a rule, active = well fitted inhibition curve with a large enough effect; inconclusive = small, poorly fitted or top-dose-only effect, or another doubt; inactive = no such curve, though single readings can be large or run the other way. Potencies of inconclusive entries are left out as doubtful fits.

Assay: qHTS Assay for Inhibitors of Hepatitis C Virus (HCV)
Settings: Huh7.5.1 HCVcc-Cre (HCVcc is cell-culture hepatitis C virus) infection, luciferase reporter, 44 h; activity change, negative = inhibition: at 41.8 µM (top of the series) unless noted
Summary of the method: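 Reporter virus HCVcc-Cre (~0.5 moi) infects cells exposed to compound; seeding density 1,000 cells/well with 4 h settling beforehand. Luminescence, 15 sec read, taken 44 h post-infection following a 15 min RT substrate incubation.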
% is scaled to controls: 0 for no effect and ±100 for the full control effect; potency is read from the fitted curve at half-maximal effect; tags tell the direction and shape of the fitted curve.

Q: For `COc1ccccc1N1CCN(C(=O)CSc2nc3ccccc3o2)CC1`, which Potency is on record?
A: inactive

Q: Which Potency does the source give for `Cc1ccc(NC(=S)NCC23C=CC(O2)C2C(=O)N(c4ccc(C)cc4)C(=O)C23)cc1` (configuration not stated) here?
A: inactive

Q: Which Potency does the source give for `Cc1cc(C)c(C#N)c(SCC(=O)N(CC(C)C)C2CCS(=O)(=O)C2)n1` (configuration not stated) here?
A: inconclusive [inhibitor, partial curve]

Q: For `Cc1cc(C)n(-c2nc3ccccc3nc2N2CCCC2)n1`, which Potency is on record?
A: inactive

Q: With `CN(C)CCCOC(=O)c1sc2ccccc2c1Cl` as the molecule, how does the Potency read?
A: inactive

Q: Which Potency does the source give for `O=C(Nc1cccc(F)c1)C1CCCN1C(=O)OCc1ccccc1` (configuration not stated) here?
A: inactive

Q: Which Potency does the source give for `CCOP(=O)(Nc1ccc2c(c1)C(=NNC(N)=S)c1ccccc1-2)OCC` here?
A: active: 11.2 µM

Q: With `O=C(Cn1cncn1)N/N=C/c1ccccc1O` as the molecule, how does the Potency read?
A: inconclusive [inhibitor, single point]

Q: Which Potency does the source give for `COc1cccc2c1Oc1cc([N+](=O)[O-])cc(N(C)C(C)=O)c1C=C2` here?
A: inconclusive [inhibitor, partial curve]

Q: Which activity change, negative = inhibition does the source give for `CC(=O)[C@H]1[C@H](C#N)C[C@H]2[C@@H]3CC=C4C[C@@H](O)CC[C@]4(C)[C@H]3CC[C@@]21C` here?
A: inactive: -20% [at 8.37 µM]

Q: For `O=C(Nc1ccc2c(c1)CCCN2C(=O)c1ccccc1)c1ccccc1Br`, which Potency is on record?
A: inconclusive [inhibitor, full curve]

Q: With `Cc1ccc(S(=O)(=O)n2cc(-c3ccccc3)c3ccccc32)cc1` as the molecule, how does the Potency read?
A: inconclusive [inhibitor, partial curve]

Q: For `CN(C)c1ccc(S(=O)(=O)N2CCCCC2)cc1NC(=O)CN1C(=O)NC(C)(c2ccccc2)C1=O` (configuration not stated), which Potency is on record?
A: inconclusive [inhibitor, single point]

Q: For `CC(=O)c1cccc(NC(=O)c2ccc(OC3CSC3)cc2)c1`, which Potency is on record?
A: inconclusive [inhibitor, partial curve]

Q: With `COc1ccc(NC(=O)C(Cc2ccccc2)n2cccc2)c(OC)c1` (configuration not stated) as the molecule, how does the Potency read?
A: inconclusive [inhibitor, single point]

Q: Which Potency does the source give for `CCC(C)NS(=O)(=O)c1ccc(S(=O)(=O)Nc2cc3c(cc2C(C)=O)OCO3)cc1` (configuration not stated) here?
A: active: 14.1 µM

Q: For `Cc1cc(C(=O)CN2C(=O)C(=O)N(Cc3ccco3)C2=O)c(C)n1CCc1ccc(F)cc1`, which Potency is on record?
A: inconclusive [inhibitor, single point]

Q: Which Potency does the source give for `CCOC(=O)c1ccc(NC(=O)CCCN2C(=O)NC3(CCCC3)C2=O)cc1` here?
A: inconclusive [inhibitor, full curve]

Q: Which Potency does the source give for `Cc1c(C#N)c(NC(=O)CCl)n(Cc2ccc(F)cc2)c1C` here?
A: inconclusive [inhibitor, single point]

Q: With `CC(=O)Nc1ccc(NC(=O)COc2ncnc3ccccc23)cc1` as the molecule, how does the Potency read?
A: inactive

Q: With `C=CCN1C(=O)/C(=C\C=C2\N(C)c3ccccc3C2(C)C)SC1=S` as the molecule, how does the Potency read?
A: inconclusive [inhibitor, full curve]

Q: For `O=C1N=C(N2CCCC2)S/C1=C\c1ccccc1`, which Potency is on record?
A: inactive

Q: Which Potency does the source give for `CCCC[N+]12CCC(CC1)C(C(=O)c1cccs1)C2` (configuration not stated) here?
A: inactive

Q: For `CCC(CO)NCc1ccc(-c2ccccc2)cc1` (configuration not stated), which Potency is on record?
A: inconclusive [inhibitor, single point]

Q: Which Potency does the source give for `O=C(c1ccc(NS(=O)(=O)c2cccc(F)c2)cc1)N1CCCCC1` here?
A: inactive

Q: With `Cc1nn(-c2ccc(Cl)cc2)c(Cl)c1/C=N/NC(=O)c1ccc(NS(=O)(=O)c2cccs2)cc1` as the molecule, how does the Potency read?
A: inconclusive [inhibitor, single point]

Q: With `CCOC(=O)Nc1ccc2c(c1)Cc1cc([N+](=O)[O-])ccc1-2` as the molecule, how does the Potency read?
A: inconclusive [inhibitor, partial curve]

Q: For `Cc1ccc(S(=O)(=O)N2CCc3cc4c(cc3C2C)OCCCO4)cc1` (configuration not stated), which Potency is on record?
A: inconclusive [inhibitor, single point]

Q: With `COCCNC(=O)CSc1nc(-c2ccccc2)c(-c2ccccc2)o1` as the molecule, how does the Potency read?
A: inconclusive [inhibitor, partial curve]

Q: For `Cc1cc(=O)oc(C)c1C(=O)N1CCN(c2ccc(F)cc2)CC1`, which Potency is on record?
A: inactive

Q: Which Potency does the source give for `NC(=O)CC(NC(=O)Cc1ccc(Br)cc1)c1ccc(NCc2ccc(F)cc2)c([N+](=O)[O-])c1` (configuration not stated) here?
A: active: 11.2 µM

Q: Which Potency does the source give for `CC(=O)c1cnn(-c2nc3c(C)cccc3s2)c1C` here?
A: inactive

Q: With `COc1cc(CNn2c(C)n[nH]c2=S)cc(Cl)c1OCC(=O)NC(C)(C)C` as the molecule, how does the Potency read?
A: inconclusive [inhibitor, single point]

Q: Which Potency does the source give for `CC(=O)N1c2ccc(S(=O)(=O)N3CCC(C(=O)N4CCN(c5ccc(Cl)cc5)CC4)CC3)cc2CC1C` (configuration not stated) here?
A: active: 10 µM

Q: For `O=C(CNC(=O)c1cccs1)N/N=C/c1c(F)cccc1Cl`, which Potency is on record?
A: inactive

Q: For `Cn1cc([N+](=O)[O-])c(C(=O)Nc2ccc3c(c2)OCCO3)n1`, which Potency is on record?
A: inconclusive [inhibitor, partial curve]

Q: Which Potency does the source give for `COc1ccc(C(=O)Nc2oc(-c3ccccc3)c(-c3ccccc3)c2C#N)cc1OC` here?
A: active: 11.2 µM

Q: Which Potency does the source give for `Cc1ccc(-n2cc(CN3CCN(Cc4nccn4C)CC3)c(-c3ccc(F)cc3)n2)cc1` here?
A: inconclusive [inhibitor, single point]

Q: Which Potency does the source give for `C[C@H](CO)N1C[C@H](C)[C@@H](CN(C)S(=O)(=O)c2ccccc2)Oc2c(NC(=O)C3CCCCC3)cccc2C1=O` here?
A: inconclusive [inhibitor, single point]

Q: With `Cc1ccc(-c2nnc(Nc3ccc4c(c3)nc(C)n4C)c3ccccc23)cc1` as the molecule, how does the Potency read?
A: inconclusive [inhibitor, single point]

Q: With `COc1cc(OC)c(N(C)S(=O)(=O)c2cccc(C(=O)Nc3nc(C)cs3)c2)cc1Cl` as the molecule, how does the Potency read?
A: inconclusive [inhibitor, partial curve]

Q: Which Potency does the source give for `O=C(NCC1COc2ccccc2O1)C1CCCN(S(=O)(=O)c2cccc3cccnc23)C1` (configuration not stated) here?
A: inconclusive [inhibitor, single point]

Q: Which Potency does the source give for `CCCOC(=O)/C(C(N)=NCc1ccccc1)=C(\O)OCCC` here?
A: inconclusive [inhibitor, full curve]

Q: Which Potency does the source give for `CCCN(CC(=O)Nc1ccccc1C)C(=O)/C=C/c1ccc(S(=O)(=O)N2CCCCCC2)cc1` here?
A: inconclusive [inhibitor, full curve, poor fit]

Q: For `Cc1ccc(NC(=O)COc2ccc(Br)cc2CO)cc1S(=O)(=O)N1CCOCC1`, which Potency is on record?
A: inconclusive [inhibitor, single point]

Q: Which Potency does the source give for `COc1ccc(NC(=O)NC2CCCc3ccccc32)c(OC)c1` (configuration not stated) here?
A: inconclusive [inhibitor, partial curve]

Q: With `COc1ccccc1/C=C/C(=O)NCC(=O)n1nc(C)cc1C` as the molecule, how does the Potency read?
A: inconclusive [inhibitor, partial curve, poor fit]

Q: Which Potency does the source give for `CCOC(=O)c1c(N)nn(C(=O)C(C)(C)C)c1-c1ccccc1` here?
A: inactive

Q: Which Potency does the source give for `CC(=O)c1cccc(Nc2nc3ccccc3n3cnnc23)c1` here?
A: inconclusive [inhibitor, single point]

Q: For `CCOc1ccc(NC(=O)CNC(=O)c2ccco2)cc1`, which Potency is on record?
A: inactive

Q: Which Potency does the source give for `CC1CCCC(NC(=O)C2N(CCCN3CCCC3)C(=O)C3C(C(=O)Nc4cccc(Cl)c4)C4C=CC32O4)C1C` (configuration not stated) here?
A: inactive

Q: Which Potency does the source give for `CCNc1nc(NCC)nc(N/N=C(\C)c2ccc(OC)cc2)n1` here?
A: inconclusive [inhibitor, partial curve]

Q: With `CCN(CC)c1ccc(NC(=S)NC(=O)Cc2ccccc2)cc1` as the molecule, how does the Potency read?
A: inactive

Q: With `COc1ccc(C)cc1NC(=O)C(OC(=O)c1cnccn1)c1ccccc1` (configuration not stated) as the molecule, how does the Potency read?
A: inconclusive [inhibitor, single point]

Q: For `COC(=O)c1cc(COC(=O)c2ccc3ccccc3n2)oc1C`, which Potency is on record?
A: inactive

Q: With `OC(CNC1CCCCC1)COCCOc1ccc(Br)cc1` (configuration not stated) as the molecule, how does the Potency read?
A: active: 7.94 µM

Q: With `Cc1c(Cc2ccccc2)c(NCCCO)n2c(nc3ccccc32)c1C#N` as the molecule, how does the Potency read?
A: inconclusive [inhibitor, partial curve, poor fit]

Q: Which Potency does the source give for `O=C(O)c1cnc2ccccc2n1` here?
A: inactive

Q: Which Potency does the source give for `COc1ccc(N(CC(=O)Nc2ccc(OC)cc2OC)S(=O)(=O)c2ccccc2)cc1` here?
A: inconclusive [inhibitor, single point]

Q: Which Potency does the source give for `O=C(c1ccc(CS(=O)(=O)c2c(Cl)cccc2Cl)o1)N1CCCC1` here?
A: inactive

Q: For `COc1ccc(CNc2nc(-c3cccnc3)nn2C(=O)c2cccs2)cc1`, which Potency is on record?
A: inconclusive [inhibitor, partial curve, poor fit]

Q: For `CCc1nnc(NC(=O)Nc2ccc(Cl)cc2)s1`, which Potency is on record?
A: inactive

Q: With `CCO[C@H]1OC(C(=O)NCc2nc3ccccc3[nH]2)=C[C@@H](c2cn(C(C)=O)c3ccccc23)[C@@H]1CCCO` as the molecule, how does the Potency read?
A: inconclusive [inhibitor, full curve]

Q: Which Potency does the source give for `CCOC(=O)c1c(NC(=O)Nc2ccccc2)sc(C)c1C` here?
A: inactive

Q: With `COc1cc(C)ccc1Oc1ncnc(N)c1[N+](=O)[O-]` as the molecule, how does the Potency read?
A: inactive

Q: With `C=CCn1c(SCC(=O)Nc2cc(C)ccc2OC)nnc1-c1ccco1` as the molecule, how does the Potency read?
A: inconclusive [inhibitor, single point]

Q: With `CCC(=O)NNc1ccc(Br)cc1` as the molecule, how does the Potency read?
A: inactive

Q: For `COc1ccc(CCNC(=S)NCCc2ccc(OC)c(OC)c2)cc1OC`, which Potency is on record?
A: inconclusive [inhibitor, single point]

Q: For `COc1ccc(C2NC(=O)c3ccccc3N2)cc1` (configuration not stated), which Potency is on record?
A: inconclusive [inhibitor, single point]

Q: Which Potency does the source give for `COc1cc2c(cc1NC(=O)CN1C(=O)NC3(CCc4ccccc43)C1=O)oc1ccccc12` (configuration not stated) here?
A: inconclusive [inhibitor, single point]

Q: For `Cc1cc(O)cc(=O)n1C`, which Potency is on record?
A: inactive

Q: For `COc1cc(C=C2C(=O)NC(=O)NC2=O)ccc1OS(=O)(=O)c1ccccc1[N+](=O)[O-]`, which Potency is on record?
A: inactive
